PubChem BioAssay AID1346428 (National Center for Advancing Translational Sciences (NCATS), 2018)
Values joined by “and” are separate entries in the source; they are usually repeats but may differ in a detail not shown here. Equal entries are not always repeated. Hit rate of the full screen: of about 48,000 compounds, about 1,200 (2.5%) were called active. Another 2% or so got no clear call; they are omitted.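 Rule for the calls: active = activation of at least 60% and not above a set upper limit (about 1 call in 100 departs from these limits); inconclusive = activation of 40% to 60%, or above that upper limit; inactive = activation under 40%.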 The list shows a part of the results.

Biological target: Probable G-protein coupled receptor 32 (Homo sapiens) (UniProt O75388)
UniProt O75388, sequence (O75388 whole entry, looked up): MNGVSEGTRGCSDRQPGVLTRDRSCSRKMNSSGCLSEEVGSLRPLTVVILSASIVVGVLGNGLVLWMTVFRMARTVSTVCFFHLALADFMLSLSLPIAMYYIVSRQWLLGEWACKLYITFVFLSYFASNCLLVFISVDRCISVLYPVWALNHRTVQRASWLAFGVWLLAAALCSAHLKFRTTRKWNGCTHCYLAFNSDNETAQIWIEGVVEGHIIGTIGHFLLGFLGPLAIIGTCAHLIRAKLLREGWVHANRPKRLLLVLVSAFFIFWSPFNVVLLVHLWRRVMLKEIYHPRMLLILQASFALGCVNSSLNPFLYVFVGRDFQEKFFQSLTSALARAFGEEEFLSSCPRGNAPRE
Assay: qHTS for Agonists of Human Resolvin D1 Receptor DRV1; note: 0% is about no effect
Details: CHO-K1 GPR32 beta-arrestin PathHunter luminescence, 90 min; at 76.9 µM; active compounds read high; zero percent set by DMSO-only wells
Outline: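 GPR32 activation in stably transfected CHO-K1 cells, detected as beta-arrestin recruitment by enzyme-fragment complementation. Compound exposure: 90 min, 37 °C.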

Row | Structure (SMILES) | activation
1 | Cc1ccc(NC(=O)Cn2nc(Cc3ccncc3)c3ccccc3c2=O)c(Cl)c1 | inactive: -17.6%
2 | CCOc1ccc(NC(=O)c2oc3ccccc3c2NC(=O)c2ccc(OC)cc2OC)cc1 | inactive: -1.08%
3 | COc1ccccc1CNC(=O)CN1N=C(c2ccccc2)CCC1=O | inactive: -20.3%
4 | COc1cc(CNCCSc2nnnn2C)cc(Cl)c1OCc1ccccc1 | active: 89%
5 | COc1ccc(CNC(=O)CS(=O)Cc2nc(-c3cccc(C)c3)oc2C)cc1 (stereo not given) | inactive: 4.05%
6 | Fc1ccccc1N1CCN(c2nccn3nc(-c4ccc(Br)cc4)cc23)CC1 | inactive: 6.38%
7 | CCCCN(CC)CCNC(=O)c1cc2c(=O)n(CC)c3ccccc3c2s1 | inactive: 11.3%
8 | CCCCNc1nc2ccccc2c2nc(-c3ccccc3)nn12 | inactive: 1.76%
9 | Cc1ccc(S(=O)(=O)NCC2CCC(C(=O)NCCCOC(C)C)CC2)cc1 (stereo not given) | inactive: -1.22%
10 | Cc1nc(SCCOc2ccccc2F)[nH]c(=O)c1Cc1ccccc1 | inactive: -10.5%
11 | Cc1ccccc1NC(=O)c1oc2c(c1C)-c1nn(Cc3cccc(Cl)c3)cc1CC2 | inactive: -6.39%
12 | COc1ccc(CCNC(=O)c2ccc(Cn3c(=O)c4ccccc4n(CC(=O)C(C)(C)C)c3=O)cc2)cc1OC | inactive: -19.8%
13 | COc1cc(NC(=O)CCn2nc(C)c(S(=O)(=O)N3CCCCC3)c2C)cc(OC)c1OC | inactive: -18.5%
14 | Cc1ccccc1C(=O)N(Cc1sccc1C)C1CCS(=O)(=O)C1 (stereo not given) | inactive: -9.44%
15 | Cc1ccc(Cl)cc1NC(=O)CCCn1c(=O)c2cccn2c2cccnc21 | inactive: -10.3%
16 | COc1ccccc1NC(=O)C1=C(C)Nc2c(C(=O)Nc3cccc(C)c3)cnn2C1c1ccccc1Cl (stereo not given) | inactive: -16.9%
17 | CC1CCCCN1CCCNC(=O)CN1C(=O)c2cccnc2Oc2ccccc21 (stereo not given) | inactive: -6.18%
18 | COc1ccc(Cl)cc1NC(=O)c1c(NCc2cccnc2)sc2c1CCC(C)C2 (stereo not given) | inactive: -7.15%
19 | CCN1CCN(C(c2ccc(SC)cc2)c2c(O)cc(C)n(CCOC)c2=O)CC1 (stereo not given) | inactive: -9.4%
20 | CCCCN(CC)C(=O)C1CCCN(c2ncnc3onc(C)c23)C1 (stereo not given) | inactive: 29.4%
21 | COc1ccc(-c2nc3n(n2)C(c2ccc(OC)c(OC)c2)C(C(=O)Nc2cccnc2)=C(C)N3)cc1 (stereo not given) | inactive: -6.8%
22 | COCCCNC(=O)c1ccc(Cn2c(=O)c3ccccc3n(Cc3c(C)cc(C)cc3C)c2=O)cc1 | inactive: 3.33%
23 | CCOC(=O)c1ccc(CN(Cc2ccc(Br)cc2)S(=O)(=O)c2cccc(Cl)c2C)cc1 | inactive: -9.41%
24 | CCOC(=O)c1c(C)[nH]c(C)c1S(=O)(=O)NCC(=O)NCc1cccc(C)c1 | inactive: -10.3%
25 | O=c1cc(-c2ccc(F)cc2)nc(SCc2nc(-c3ccc(Cl)cc3)no2)[nH]1 | inactive: -0.425%
26 | COc1cc(C(=O)NCC(c2ccc(Cl)cc2)N2CCOCC2)cc(OC)c1OC (stereo not given) | inactive: 1.97%
27 | CCc1ccc(C2C(C(=O)Nc3ccccc3C)=C(C)Nc3nc(SCc4cccc(OC)c4)nn32)cc1 (stereo not given) | inactive: 0.908%
28 | CCOC(=O)CC(NC(=O)Cn1nnc(-c2ccccc2F)n1)c1ccccc1Cl (stereo not given) | inactive: 3.95%

Row | Structure (SMILES) | activation
29 | Cc1ccc(N2CCN(C(=O)c3cn(C)c4ccc(S(=O)(=O)N(C)C)cc4c3=O)CC2C)cc1 (stereo not given) | inactive: -4.26%
30 | CCS(=O)(=O)c1ncc(N(Cc2ccco2)Cc2ccccc2F)c(C(=O)Nc2cccc(Cl)c2)n1 | inactive: -2.24%
31 | O=C(Cn1c(=O)nc(-c2ccccc2)c2ccccc21)NCc1ccccc1Cl | inactive: -8.94%
32 | CC(=O)c1ccc(NC(=O)CSc2nc(=O)n(Cc3ccncc3)c3c2CCC3)cc1 | inactive: -2.5%
33 | CCOc1ccccc1C(=O)Nc1cc2c(cc1N1CCOCC1)n(C)c(=O)n2C | inactive: -22%
34 | Cc1ccc(CCNC(=O)c2ccc3c(c2)c(C)c(C)n3Cc2ccccc2)cc1 | inactive: -19.7%
35 | CCc1nc2c(cnn2-c2ccc(Cl)cc2)c(=O)n1-c1ccc(OC)c(Cl)c1 | inactive: 8.45%
36 | Cc1ccc(OCC(=O)Nc2cc(-c3cccc(C)c3)nn2-c2ccccc2)cc1 | inactive: -20%
37 | CCOc1ccc(N2CC(c3nc4ccccc4n3Cc3cccc(C)c3)CC2=O)cc1 (stereo not given) | inactive: -24.2%
38 | O=[N+]([O-])c1cc(-c2nc(-c3ccccc3)no2)ccc1NCCc1ccccc1 | inactive: 5.81%
39 | COc1ccc(-n2c(=O)c3sc4ccccc4c3n(CC(=O)NCc3ccccc3)c2=O)cc1 | inactive: 8.42%
40 | Cc1ccccc1CNC(=O)c1ccc(CS(=O)Cc2ccc(Cl)cc2)o1 (stereo not given) | inactive: -26.4%
41 | NC(=S)N/N=C/c1cccnc1 | inactive: 29.1%
42 | Cc1ccc2nc(N(Cc3cccnc3)C(=O)c3cccs3)sc2c1 | inactive: -8.54%
43 | CCCn1c(CCC(=O)Nc2cccc(CC)c2)nc2cccnc21 | inactive: -10.7%
44 | CCn1c(CC2C(=O)N(C)c3ccccc32)nc2ccccc2c1=O (stereo not given) | inactive: -1.21%
45 | COc1ccc(Cl)cc1NC(=O)CSc1nc(-c2ccccc2)c2ccccc2n1 | inactive: -14.7%
46 | O=C(Nc1cccc(F)c1)[C@@H](c1ccccc1)N1Cc2ccccc2C1=O | inactive: -7.51%
47 | Cc1nn(C(C)(C)C)c(OC(=O)c2cccc(F)c2)c1Sc1ccccc1 | inactive: 6.1%
48 | CC(O)C(=O)O (stereo not given) | inactive: 0.163%
49 | CCCSc1nnc2n(-c3ccc(OC)cc3)c(=O)c3c4c(sc3n12)COC(C(C)C)C4 (stereo not given) | inactive: 21%
50 | CC(C)CC(C(=O)NCCc1ccccc1)N1Cc2ccccc2C1=O (stereo not given) | inactive: -10%
51 | CCc1ccc(NC(=O)CCCn2nc(C)c3c(C)n(-c4ccccc4)nc3c2=O)cc1 | inactive: -5.04%
52 | CCOc1ccc(CNC(=O)C2CCN(Cc3cc4ccccc4n3Cc3ccccc3C)CC2)cc1 | inactive: -24.7%
53 | CN(C)CCOC(c1ccccc1)c1ccccc1 | inactive: 12% and inactive: 8.95%
54 | Cc1ccc(NC(=O)C(=O)NCCCN2CCOCC2)cc1C | inactive: -6.07%
55 | Cc1cccc(NC(=O)C2(C)Cc3ccccc3C(=O)O2)c1 (stereo not given) | inactive: -5.12%
